# Reference: the supplement of paper PMC8728848
# The list shows a part of the results.
# B1: CFEM-CGl (Candida glabrata), Q6FRS0 (protein)
# chain: VLATPPACLLACVAQVSKQSSQCHTLNQVGCFCENENTAIKNCLDSICPNGNSDAAYTAFKNSCGDVGKAVASV
# What was measured:
# Assay in all cases: glycan array binding signal (z-score within array); higher = stronger binding
# Conditions in all cases: glycan notation: IUPAC condensed, linker removed
# [1] = target: Neu5Ac(a2-6)Gal(b1-4)GlcNAc(b1-3)Gal(b1-4)GlcNAc(b1-3)Gal(b1-4)GlcNAc(b1-2)Man(a1-3)[Neu5Ac(a2-6)Gal(b1-4)GlcNAc(b1-3)Gal(b1-4)GlcNAc(b1-3)Gal(b1-4)GlcNAc(b1-2)Man(a1-6)]GalNAc
# In short: (§1)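 The binding signal is a Z-score computed within each array. Data were drawn from 3228 arrays in the Consortium for Functional Glycomics database, restricted to those with a known protein sequence. Scores were averaged over arrays of the same protein sequence at different concentrations or buffers, and over linkers, and negative values can be taken as non-binding.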
# [2] = target: Neu5Ac(a2-6)Gal(b1-4)GlcNAc(b1-3)Gal(b1-4)GlcNAc(b1-3)GalNAc
# In short: as §1
# [3] = target: Neu5Ac(a2-6)Gal(b1-4)GlcNAc(b1-3)Gal(b1-4)GlcNAc(b1-3)[Neu5Ac(a2-6)Gal(b1-4)GlcNAc(b1-3)Gal(b1-4)GlcNAc(b1-6)]GalNAc
# In short: as §1
# [4] = target: Neu5Ac(a2-6)Gal(b1-4)GlcNAc(b1-3)Gal(b1-4)GlcNAc(b1-6)[Gal(b1-3)]GalNAc
# In short: as §1
# [5] = target: Neu5Ac(a2-6)Gal(b1-4)GlcNAc(b1-3)Gal(b1-4)[Fuc(a1-3)]GlcNAc(b1-3)Gal(b1-4)[Fuc(a1-3)]GlcNAc
# In short: as §1
# [6] = target: Neu5Ac(a2-6)Gal(b1-4)GlcNAc(b1-3)GalNAc
# In short: as §1
# [7] = target: Neu5Ac(a2-6)Gal(b1-4)GlcNAc(b1-3)[Neu5Ac(a2-6)Gal(b1-4)GlcNAc(b1-6)]GalNAc
# In short: as §1
# [8] = target: Neu5Ac(a2-6)Gal(b1-4)GlcNAc(b1-6)GalNAc
# In short: as §1
# [9] = target: Neu5Ac(a2-6)Gal(b1-4)GlcNAc(b1-6)[Gal(b1-3)GlcNAc(b1-3)]Gal(b1-4)Glc
# In short: as §1
# [10] = target: Neu5Ac(a2-6)Gal(b1-4)GlcNAc(b1-6)[Gal(b1-3)]GalNAc
# In short: as §1
# [11] = target: Neu5Ac(a2-6)Gal(b1-4)GlcNAc6S
# In short: as §1
# Neu5Ac(a2-6)GalNAc = target: Neu5Ac(a2-6)GalNAc
# In short: as §1
# [12] = target: Neu5Ac(a2-6)GalNAc(b1-4)GlcNAc
# In short: as §1
# [13] = target: Neu5Ac(a2-6)GalNAc(b1-4)GlcNAc6S
# In short: as §1
# [14] = target: Neu5Ac(a2-6)GlcNAc(b1-4)GlcNAc
# In short: as §1
# [15] = target: Neu5Ac(a2-6)GlcNAc(b1-4)GlcNAc(b1-4)GlcNAc
# In short: as §1
# Neu5Ac(a2-8)Neu5Ac = target: Neu5Ac(a2-8)Neu5Ac
# In short: as §1
# [16] = target: Neu5Ac(a2-8)Neu5Ac(a2-3)Gal(b1-3)GalNAc(b1-4)[Neu5Ac(a2-3)]Gal(b1-4)Glc
# In short: as §1
# [17] = target: Neu5Ac(a2-8)Neu5Ac(a2-3)Gal(b1-3)GalNAc(b1-4)[Neu5Ac(a2-8)Neu5Ac(a2-3)]Gal(b1-4)Glc
# In short: as §1
# [18] = target: Neu5Ac(a2-8)Neu5Ac(a2-3)Gal(b1-4)Glc
# In short: as §1
# [19] = target: Neu5Ac(a2-8)Neu5Ac(a2-3)Gal(b1-4)GlcNAc
# In short: as §1
# [20] = target: Neu5Ac(a2-8)Neu5Ac(a2-3)[Gal(b1-3)GalNAc(b1-4)]Gal(b1-4)Glc
# In short: as §1
# [21] = target: Neu5Ac(a2-8)Neu5Ac(a2-3)[GalNAc(b1-4)]Gal(b1-4)Glc
# In short: as §1
# [22] = target: Neu5Ac(a2-8)Neu5Ac(a2-8)Neu5Ac
# In short: as §1
# [23] = target: Neu5Ac(a2-8)Neu5Ac(a2-8)Neu5Ac(a2-3)Gal(b1-4)Glc
# In short: as §1
# [24] = target: Neu5Ac(a2-8)Neu5Ac(a2-8)Neu5Ac(a2-3)[Gal(b1-3)GalNAc(b1-4)]Gal(b1-4)Glc
# In short: as §1
# [25] = target: Neu5Ac(a2-8)Neu5Ac(a2-8)Neu5Ac(a2-3)[GalNAc(b1-4)]Gal(b1-4)Glc
# In short: as §1
# [26] = target: Neu5Ac(a2-8)Neu5Ac(a2-8)Neu5Ac(a2-8)Neu5Ac(a2-3)[GalNAc(b1-4)]Gal(b1-4)Glc
# In short: as §1
# [27] = target: Neu5Ac(a2-8)Neu5Gc(a2-3)Gal(b1-4)GlcNAc
# In short: as §1
# [28] = target: Neu5Ac(b2-6)Gal(b1-4)GlcNAc
# In short: as §1
# Neu5Ac(b2-6)GalNAc = target: Neu5Ac(b2-6)GalNAc
# In short: as §1
# [29] = target: Neu5Ac9Ac(a2-3)Gal(b1-3)GlcNAc
# In short: as §1
# [30] = target: Neu5Ac9Ac(a2-3)Gal(b1-4)GlcNAc
# In short: as §1
# [31] = target: Neu5Ac9Ac(a2-6)Gal(b1-4)GlcNAc
# In short: as §1
# [32] = target: Neu5Gc(a2-3)Gal(b1-3)GlcNAc
# In short: as §1
# [33] = target: Neu5Gc(a2-3)Gal(b1-3)[Fuc(a1-4)]GlcNAc
# In short: as §1
# Neu5Gc(a2-3)Gal(b1-4)Glc = target: Neu5Gc(a2-3)Gal(b1-4)Glc
# In short: as §1
# [34] = target: Neu5Gc(a2-3)Gal(b1-4)GlcNAc
# In short: as §1
# [35] = target: Neu5Gc(a2-3)Gal(b1-4)GlcNAc(b1-3)Gal(b1-4)GlcNAc(b1-2)Man(a1-3)[Neu5Gc(a2-3)Gal(b1-4)GlcNAc(b1-3)Gal(b1-4)GlcNAc(b1-2)Man(a1-6)]Man(b1-4)GlcNAc(b1-4)GlcNAc
# In short: as §1
# [36] = target: Neu5Gc(a2-3)Gal(b1-4)[Fuc(a1-3)]GlcNAc
# In short: as §1
# [37] = target: Neu5Gc(a2-6)Gal(b1-4)GlcNAc
# In short: as §1
# Neu5Gc(a2-6)GalNAc = target: Neu5Gc(a2-6)GalNAc
# In short: as §1
# [38] = target: Neu5Gc(a2-8)Neu5Ac(a2-3)Gal(b1-4)GlcNAc
# In short: as §1
# [39] = target: Neu5Gc(a2-8)Neu5Gc(a2-3)Gal(b1-4)GlcNAc
# In short: as §1
# [40] = target: Neu5Gc(a2-8)Neu5Gc(a2-3)Gal(b1-4)GlcNAc(b1-3)Gal(b1-4)GlcNAc
# In short: as §1
# [41] = target: Neu5Gc(a2-8)Neu5Gc(a2-6)Gal(b1-4)GlcNAc
# In short: as §1
# [42] = target: Neu5Gc(b2-6)Gal(b1-4)GlcNAc
# In short: as §1
binder,measurement,setting,value
B1,glycan array binding signal (z-score),[1],4.31
same,glycan array binding signal (z-score),[2],-0.312
same,glycan array binding signal (z-score),[3],-0.204
same,glycan array binding signal (z-score),[4],0.714
same,glycan array binding signal (z-score),[5],-0.407
same,glycan array binding signal (z-score),[6],-0.36
same,glycan array binding signal (z-score),[7],-0.174
same,glycan array binding signal (z-score),[8],0.305
same,glycan array binding signal (z-score),[9],-0.493
same,glycan array binding signal (z-score),[10],0.876
same,glycan array binding signal (z-score),[11],-0.102
same,glycan array binding signal (z-score),Neu5Ac(a2-6)GalNAc,-0.255
same,glycan array binding signal (z-score),[12],0.06
same,glycan array binding signal (z-score),[13],-0.122
same,glycan array binding signal (z-score),[14],-0.451
same,glycan array binding signal (z-score),[15],-0.504
same,glycan array binding signal (z-score),Neu5Ac(a2-8)Neu5Ac,-0.037
same,glycan array binding signal (z-score),[16],-0.142
same,glycan array binding signal (z-score),[17],-0.248
same,glycan array binding signal (z-score),[18],-0.373
same,glycan array binding signal (z-score),[19],-0.527
same,glycan array binding signal (z-score),[20],0.657
same,glycan array binding signal (z-score),[21],-0.151
same,glycan array binding signal (z-score),[22],-0.231
same,glycan array binding signal (z-score),[23],-0.465
same,glycan array binding signal (z-score),[24],-0.372
same,glycan array binding signal (z-score),[25],-0.42
same,glycan array binding signal (z-score),[26],-0.195
same,glycan array binding signal (z-score),[27],-0.396
same,glycan array binding signal (z-score),[28],-0.305
same,glycan array binding signal (z-score),Neu5Ac(b2-6)GalNAc,0.161
same,glycan array binding signal (z-score),[29],-0.26
same,glycan array binding signal (z-score),[30],-0.485
same,glycan array binding signal (z-score),[31],-0.421
same,glycan array binding signal (z-score),[32],-0.262
same,glycan array binding signal (z-score),[33],-0.349
same,glycan array binding signal (z-score),Neu5Gc(a2-3)Gal(b1-4)Glc,-0.036
same,glycan array binding signal (z-score),[34],-0.194
same,glycan array binding signal (z-score),[35],-0.356
same,glycan array binding signal (z-score),[36],-0.096
same,glycan array binding signal (z-score),[37],-0.523
same,glycan array binding signal (z-score),Neu5Gc(a2-6)GalNAc,-0.19
same,glycan array binding signal (z-score),[38],-0.424
same,glycan array binding signal (z-score),[39],-0.423
same,glycan array binding signal (z-score),[40],-0.014
same,glycan array binding signal (z-score),[41],-0.359
same,glycan array binding signal (z-score),[42],-0.21
